Reference: publication PMC12136788
This is one part of the list.

B1: ENSG00000198589:be:win_1751|CDS|ENSG00000198589|bound_else_gene|NA|bound_elsewhere_windowed (ssRNA)
RNA: GGGAGUUCUACAGUCCGACGAUCCCAAGGUUCAACUGAUGCUCUAUACUUAUCUGUCCACGGAAUUCAUUGGUACAGUCAACAUAUAUAACACCAUUCGGAGAGUUGGAACAGUGCUUCUCAUCAUGCACACGCUGAAGUACUCAACAGAGGAUUGAGCAUCA
B2: chr20:56370492:56370607:-|CDS|ENSG00000087586|unk|total|mutant (ssRNA)
RNA: GGGAGUUCUACAGUCCGACGAUCUCGGAUGCAUGAUGAGAAGGUGGAUCUCUGGAGCCUUGGAGUUCUUUGCUAUGAAUUUUCCGUUGGGAAGCCUCCUUUUGAGGCAAACACAUACCAAGAGACCUACAAAAGAAUAUCACGCAACAGAGGAUUGAGCAUCA
B3: chr2:65312585:65312700:-|3pUTR|ENSG00000198369|unk|FALSE|unique (ssRNA)
RNA: GGGAGUUCUACAGUCCGACGAUCUGGACCAGGGCUAGAAUGGGGAUUUCAGGUUUCUAUGAGCCUCCCCAUUACCCCUAAAGUAGAACAUUUUUUAAAUUGUGUUGCCACCACUUCUAAAAAUUUAGCAAUAUUAGAAUAGGACAACAGAGGAUUGAGCAUCA
B4: chr1:92387783:92387894:+|3pUTR|ENSG00000122484|unk|total|mutant (ssRNA)
RNA: GGGAGUUCUACAGUCCGACGAUCGGGAGCUCCGUGGGCAAGGAGGCCGGGAUAUAAUUUCUCUUCUUGGCUCCACCAGUAAUCCGCUCUGUGGCCCAGUCACCUAAACUUUCUGGACUUCAGUUCAGGUUGUAUGGCAGCCGGCAACAGAGGAUUGAGCAUCA
B5: chr21:30561100:30561289:-|CDS|ENSG00000244362|control|control|control (ssRNA)
RNA: GGGAGUUCUACAGUCCGACGAUCAGCUACUAUGGAGGCCUAGGCUACGGCUGUGGAGGAUUCGGUGGCCUGGGCUAUGGCUAUAGCUGUGGAUGUGGCAGCUUCCGCAGACUGGGCUAUGGCUGUGGCUAUGGAGGCUACAGACAACAGAGGAUUGAGCAUCA
B6: chr12:98549999:98550103:+|3pUTR|ENSG00000120802|unk|FALSE|unique (ssRNA)
RNA: GGGAGUUCUACAGUCCGACGAUCUGUUUCCCAUACUGUUUUCAGCCUUUUGUUUAUAAUUAGAAAUUGUGAGAAGCUUCAUUUAGUGUUUAAAAAUGUGGGGAGAUAAAUCAGACUUAACAUGUAUGUAAGAUCAAUUCACUUCAACAGAGGAUUGAGCAUCA
B7: chr12:104760787:104760888:+|3pUTR|ENSG00000171310|unk|total|mutant (ssRNA)
RNA: GGGAGUUCUACAGUCCGACGAUCUUCUUUUCUAAUGGCAUUGAAACUUUAAAAAAAAUGGAUUCAACUGUUUUUGCAGAAUGCCGAAAGUAUUCUGUGUCCUUGGUUAAAGAAAUCCACUUGUGAAGUGUGCCUGGAAAAUGACAACAGAGGAUUGAGCAUCA
B8: chr4:75812186:75812332:+|CDS|ENSG00000138768|unk|total|mutant (ssRNA)
RNA: GGGAGUUCUACAGUCCGACGAUCAGAGCAGCUGGAUUCAUCUAACCGUACCAUUGCCAUUUUACAAACUGAGAAAGACAAACCCGAGUUGGAAAUUACAGAUUCUAAAAAAGAACAAGAUGAUCUCUUGGUGCUCUUGGCCGACAACAGAGGAUUGAGCAUCA
B9: chr6:42978268:42979150:-|CDS|ENSG00000124587|control|control|control (ssRNA)
RNA: GGGAGUUCUACAGUCCGACGAUCACUUCACAGCCGCACUUGGCUAGGGUGCAGGUCCUAGAACCUCGCUGGGACCUCUCUGAUAGACUGGGACCCGGCUCUGGACCGCUGGGAGAGCCCCUCGCUGACGGACUGGCGCUUGUCCAACAGAGGAUUGAGCAUCA
B10: ENSG00000070961:be:win_601|CDS|ENSG00000070961|bound_else_gene|NA|bound_elsewhere_windowed (ssRNA)
RNA: GGGAGUUCUACAGUCCGACGAUCCAGGUCAUUCAGAUACCUGUAGCUGACAUUACUGUUGGAGAUAUUGCUCAAGUGAAAUAUGGUGAUCUUCUUCCAGCUGACGGCAUACUUAUUCAAGGCAACGAUCUUAAAAUUGAUGAACAACAGAGGAUUGAGCAUCA
B11: ENSG00000198589:be:win_9401|3pUTR|ENSG00000198589|bound_else_gene|NA|bound_elsewhere_windowed (ssRNA)
RNA: GGGAGUUCUACAGUCCGACGAUCUAGAGGCUACCGGGUGCUGUAUUCAGCAACACCUGUUUUACUAUUUGUUAUUAAACUAUCAUCUCCACCUUCCUUUUGAUUAGCAAUUUGUACUAAGAAACGAAACAAUGUUAUUUGGUGCAACAGAGGAUUGAGCAUCA
B12: chr17:41691520:41691533:+|3pUTR|ENSG00000173812|msi1_unk|FALSE|overlapping (ssRNA)
RNA: GGGAGUUCUACAGUCCGACGAUCGGAACAAAUCUCAAACUGAUCCAUCAGUCAUGUAGCUAGCUGUAGAGCUUGCAACUUAAUAGCAGCAGCUGCCCAAUGCCAUGUGAAGUAACAAACUGGUUUUUGGUUUUUUUUUCCCCUCAACAGAGGAUUGAGCAUCA
B13: chr20:7982266:7982367:-|CDS|ENSG00000125827|msi1|total|mutant (ssRNA)
RNA: GGGAGUUCUACAGUCCGACGAUCGAGAAGUGAGGCCAAUGAUCAGGGGCCCCCAGGAGAGGACGGUGUGACCCGGGAGGAAGCCGAGCCUGAGGAGGCUGAAGAAGGCAUCUCUGAGCAACCCUGCCCAGCUGACACAGAGGUCAACAGAGGAUUGAGCAUCA
B14: chr5:37007335:37007444:+|CDS|ENSG00000164190|unk|FALSE|unique (ssRNA)
RNA: GGGAGUUCUACAGUCCGACGAUCAGGCUUAUUAAGUUCAAAAGCAAAACGGGCUAAAUGUUCUACCCAUAAGCAGAGAGUAAUAGUAAUGCUUUAUAACAAAGUUUGUGACAUUGUUAGCAGCUUAUCAGAAUUGCUAGAGAUCAACAGAGGAUUGAGCAUCA

molecular target: MSI1 full-length (mouse, UniProt Q61474 1-362); test: nsRBNS (natural sequence RNA bind-n-seq); RBNS binding buffer (assumed for nsRBNS): 25 mM Tris pH 7.5, 150 mM KCl, 3 mM MgCl2, 0.01% Triton X-100, 500 ug/ml BSA, 20 U/ml SUPERase-In, 4 C; UNK is unkempt and MSI1 is Musashi-1; names of the RNAs are library labels; protein concentration not given here; high values mean tight binding
Chain of UniProt Q61474 (Q61474 whole entry): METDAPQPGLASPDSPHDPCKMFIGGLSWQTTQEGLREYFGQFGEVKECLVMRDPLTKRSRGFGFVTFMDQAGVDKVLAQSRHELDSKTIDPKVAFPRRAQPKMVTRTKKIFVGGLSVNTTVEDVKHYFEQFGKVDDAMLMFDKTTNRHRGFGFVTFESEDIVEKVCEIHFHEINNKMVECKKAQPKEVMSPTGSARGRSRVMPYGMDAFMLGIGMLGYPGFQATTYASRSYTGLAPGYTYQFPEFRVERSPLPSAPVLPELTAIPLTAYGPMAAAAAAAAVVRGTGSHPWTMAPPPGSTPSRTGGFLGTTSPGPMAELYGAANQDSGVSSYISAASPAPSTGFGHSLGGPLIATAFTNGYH

| Binder | binding signal [enrichment R] |
| --- | --- |
| B1 | 0.28 |
| B2 | 0.324 |
| B3 | 11.6 |
| B4 | 0.383 |
| B5 | 0.462 |
| B6 | 27.3 |
| B7 | 0.231 |
| B8 | 0.367 |
| B9 | 0.398 |
| B10 | 0.234 |
| B11 | 2.21 |
| B12 | 1.04 |
| B13 | 0.51 |
| B14 | 2.66 |
